Laboratory results taken from the supplement of paper PMC3334620.
The full ranking holds about 33,000 sequences; the median of “E-score (-0.5 to 0.5)” is about -0.043, and the highest 2% start at about 0.37. The list shows a part of the results.

The sequences below were run against T1, Upc2 (UniProt Q12151) (assay: PBM E-score (8-mer binding enrichment) (E-score (-0.5 to 0.5)); higher = stronger / more preferred TF binding; most listed sequences are background and not binding sites). Details: protein concentration: 200 nM; construct: GST-full length.
T1 sequence: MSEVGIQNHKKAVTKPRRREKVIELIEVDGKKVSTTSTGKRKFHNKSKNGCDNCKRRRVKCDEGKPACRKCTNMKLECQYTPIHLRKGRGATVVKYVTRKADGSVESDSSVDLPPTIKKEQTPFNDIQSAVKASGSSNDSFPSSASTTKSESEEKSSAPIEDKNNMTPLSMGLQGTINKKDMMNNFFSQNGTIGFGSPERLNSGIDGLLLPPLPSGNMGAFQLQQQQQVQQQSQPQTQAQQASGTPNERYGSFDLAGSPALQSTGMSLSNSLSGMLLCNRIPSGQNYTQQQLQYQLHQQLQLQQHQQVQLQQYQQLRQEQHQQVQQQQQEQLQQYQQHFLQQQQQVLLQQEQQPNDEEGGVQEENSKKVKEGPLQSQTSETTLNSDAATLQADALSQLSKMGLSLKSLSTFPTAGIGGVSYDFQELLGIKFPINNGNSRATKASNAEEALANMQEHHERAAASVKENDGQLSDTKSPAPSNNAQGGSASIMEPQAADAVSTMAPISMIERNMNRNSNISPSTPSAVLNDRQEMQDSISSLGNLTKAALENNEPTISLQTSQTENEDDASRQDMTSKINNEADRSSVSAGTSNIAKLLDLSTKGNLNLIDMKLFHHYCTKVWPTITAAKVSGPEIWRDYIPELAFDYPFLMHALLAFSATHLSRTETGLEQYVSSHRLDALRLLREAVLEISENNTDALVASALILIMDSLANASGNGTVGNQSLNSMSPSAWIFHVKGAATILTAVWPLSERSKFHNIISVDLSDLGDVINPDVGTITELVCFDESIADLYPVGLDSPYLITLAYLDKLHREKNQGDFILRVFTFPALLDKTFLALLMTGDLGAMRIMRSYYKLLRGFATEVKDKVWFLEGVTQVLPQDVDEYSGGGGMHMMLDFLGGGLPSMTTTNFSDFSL
Method in brief: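 Using PURExpress in vitro transcription/translation, GST-tagged yeast transcription factors were made in full-length or DNA-binding-domain form. These were applied at about 100-200 nM to double-stranded universal all-10-mer Agilent arrays, and bound protein was detected with fluorescent anti-GST. Scans were normalised with masliner before the Universal PBM Analysis Suite assigned E-scores to ungapped eight-base words pooled with their reverse complements.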

| Sequence | PBM E-score |
| --- | --- |
| AGGCAAAG | -0.164 |
| ATCTACAT | -0.131 |
| GGGTACGA | 0.465 |
| CCCACTTC | -0.0537 |
| ATATCCAG | -0.0684 |
| ATAATCCA | -0.102 |
| ATAGGGAG | -0.154 |
| CCGGTCGA | -0.0826 |
| AAACATAA | 0.0218 |
| TAAACATA | 0.0959 |
| GCACCGGC | 0.00077 |
| TACAAGTA | 0.0315 |
| CGTGCCGA | 0.0383 |
| ATCCTACG | 0.0454 |
| AGGGCGTA | 0.18 |
| AAGGAAAA | 0.0842 |
| CCAGTATC | -0.00249 |
| AAGGCGGC | -0.117 |
| AGGGCAAT | -0.0643 |
| ACAACGCG | 0.153 |
| GAGTGTAA | -0.28 |
| AGGGAACC | -0.104 |
| CGATCCTA | 0.0242 |
| GAGCTCGC | 0.138 |
| ACCAGATC | -0.215 |

| Sequence | PBM E-score |
| --- | --- |
| CATGACCA | -0.117 |
| ATAATCAT | 0.103 |
| CCCGTGCG | 0.0855 |
| GGCTAGCA | -0.374 |
| AACTTAAT | 0.0652 |
| ACATAGTA | 0.159 |
| AACATATG | 0.0351 |
| AGGGTAAA | -0.0326 |
| CCAATCAA | -0.0911 |
| CTATGCGA | 0.343 |
| CCTTGAGA | -0.252 |
| ACATCTGC | -0.301 |
| GGTGTCGA | -0.055 |
| CTGAGGAC | -0.17 |
| ATCGAACG | 0.201 |
| AAATATGA | -0.129 |
| ATGACGCC | -0.197 |
| ACCTACCT | -0.099 |
| CACGGTTC | -0.202 |
| CCGAATTA | 0.18 |
| AAGCACCC | -0.00602 |
| CATAATCC | -0.0711 |
| AGAACAGG | -0.165 |
| TTGTTAAA | 0.0604 |
| GCGCAGTA | 0.117 |

| Sequence | PBM E-score |
| --- | --- |
| GATCGTCC | -0.151 |
| ACTACGTC | -0.081 |
| ATATCTTC | 0.0681 |
| GAATGGGA | -0.131 |
| CTTGCCCC | -0.0736 |
| TACGAACA | 0.452 |
| AAGCCTCT | -0.269 |
| AAGGTGAG | -0.0732 |
| AAGCTGCA | -0.0546 |
| CAAATTGA | -0.147 |
| CCCGCAAC | 0.0194 |
| TAGATGAA | -0.0456 |
| ACGCTAGT | 0.107 |
| CGGTGGCC | -0.271 |
| AAAAACTG | -0.0494 |
| CGGCAGGA | -0.0626 |
| GAGGCTAA | -0.168 |
| CAACCTCA | -0.0655 |
| CGGAAGAA | 0.0599 |
| CTACTGCC | -0.0977 |
| GCCCTTGA | -0.189 |
| CCCCACTA | -0.188 |
| CAGCATAC | 0.0244 |
| GGGAATGA | -0.173 |
| GAGGTGCC | -0.206 |

| Sequence | PBM E-score |
| --- | --- |
| GCCACTTA | -0.13 |
| ATCTATTG | 0.0555 |
| TACGACTA | 0.437 |
| AGACGCGG | -0.066 |
| GAGTTACC | -0.0363 |
| ACGGTTCA | 0.0683 |
| ACGGGCTC | 0.128 |
| AGGCACAA | -0.241 |
| AGAGATCT | 0.0545 |
| GAACCGTC | -0.0537 |
| CAGAGCTC | -0.109 |
| GCGCGACA | 0.00528 |
| GCACCAAC | -0.142 |
| GGAGAACA | -0.0355 |
| CAAACCTG | -0.0155 |
| CTAGCAAG | -0.201 |
| CAGAGAGA | -0.0908 |
| ATAACTGG | 0.00433 |
| GAAGGAGA | -0.032 |
| AAATCCAA | 0.00477 |
| ATGGAGGA | 0.0394 |
| AGGGCGCA | -0.162 |
| CTGAGCGA | 0.267 |
| GAGGCCTA | -0.0877 |
| CACGTATC | 0.132 |

| Sequence | PBM E-score |
| --- | --- |
| CAGGGTCA | -0.065 |
| ACAATCCG | 0.0882 |
| GGTAAAAC | 0.0926 |
| CCTTGTGA | -0.124 |
| CGCTGCCC | -0.178 |
| CGGTTTCA | -0.101 |
| CAAGGTGG | -0.0983 |
| CACAACGA | 0.282 |
| CAGTGCCG | -0.0125 |
| GCAGATTA | -0.139 |
| AATTATTC | 0.0677 |
| CGGGGTAG | -0.0778 |
| AGCTAAGG | -0.435 |
| ACCACCAC | -0.233 |
| AGAAATTC | 0.00366 |
| AAATCGCA | -0.0494 |
| AGTCTGAA | -0.0807 |
| ACGCCTTG | -0.0944 |
| AAAGCTTT | 0.00261 |
| AAAACAGT | 0.118 |
| ACAGCCCG | -0.227 |
| ATAGTCTC | 0.138 |
| AGTACGGA | 0.224 |
| ACTCAGAC | -0.0991 |
| CAATAAAA | -0.0856 |

| Sequence | PBM E-score |
| --- | --- |
| CCGGCTGC | -0.14 |
| AATCTCTG | -0.0552 |
| AGAGAGAA | -0.135 |
| AAAAGGCC | 0.0371 |
| CTGATGGA | -0.301 |
| GAGTCAGA | -0.00838 |
| AACTCCGA | -0.173 |
| ACTAACAG | 0.00472 |
| CCAATTAA | -0.0911 |
| AAAAACGG | 0.117 |
| AGTGTTAA | -0.0323 |
| AGAGGAAA | -0.0639 |
| CTGTAGAA | -0.122 |
| AGGACAAT | -0.219 |
| ATGCATTA | -0.0422 |
| GATAGCAA | -0.0335 |
| ACTGAGCC | -0.0811 |
| CCGTTATA | 0.0813 |
| ACACAGAG | -0.201 |
| AGGGACCT | -0.0442 |
| ATGATCTG | -0.126 |
| AAATACAT | -0.18 |
| ACAACTGC | -0.145 |
| CCAAAGTA | -0.149 |
| AGGCTGAG | -0.334 |

| Sequence | PBM E-score |
| --- | --- |
| CAAACCAC | -0.0352 |
| ACATCAAT | 0.0394 |
| GAAGTTAA | 0.0808 |
| CAACATCC | -0.118 |
| CGACAAGC | 0.0834 |
| CGCTGTGC | -0.112 |
| CCGGGAGC | 0.0964 |
| GGACAAAC | 0.0202 |
| ATCAATGC | -0.23 |
| AACATCCA | -0.0529 |
| ATAGCCAG | -0.187 |
| GAAAAGGA | -0.106 |
| AATAACAC | 0.011 |
| GACCAAGC | -0.234 |
| AAACCCAG | -0.0692 |
| ACATCAAC | -0.0117 |
| CCACCAAG | -0.252 |
| ATGGAAAA | -0.0492 |
| ACCTCCAA | -0.167 |
| ACGGGTCA | -0.0315 |
| CCTGATCG | 0.0348 |
| TCCTGCCA | -0.307 |
| GAGCTAAA | -0.0249 |
| AAATTGAT | -0.0683 |
| ATTTGTGA | -0.0807 |

| Sequence | PBM E-score |
| --- | --- |
| ATTTGGGA | -0.084 |
| ACGTGCCT | 0.0149 |
| GTTACAAC | 0.0226 |
| ATCTTCGG | 0.174 |
| AAACTAAT | 0.144 |
| ATCCCATC | -0.154 |
| AGCCTGCG | -0.113 |
| GTCCCCAC | -0.218 |
| GAGTGGTA | -0.00107 |
| ATGTCAAT | -0.122 |
| AATCGAAC | 0.0976 |
| TATAGGAA | 0.0753 |
| GACTCACC | -0.212 |
| GCCACTCA | -0.136 |
| CTTCGAAC | 0.0736 |
| GTATCAGA | 0.0608 |
| GGACTGCA | -0.275 |
| CAGTTGTC | -0.147 |
| GACTAGAA | 0.0541 |
| ATCGGCGG | -0.0679 |
| CTTGGGTA | -1e-05 |
| CGGACCCC | 0.103 |
| ACATCAGC | -0.281 |
| GGATAACA | -0.188 |
| ACGTTCAA | 0.238 |

| Sequence | PBM E-score |
| --- | --- |
| AGCATGTC | -0.219 |
| ATATTAGG | 0.0917 |
| AGGATGGA | -0.0125 |
| AGTACCCC | -0.00507 |
| ATTGCAAT | -0.00146 |
| ATCGACAA | 0.0687 |
| TAACGACA | 0.381 |
| GTAGCTCA | -0.169 |
| ATCAAAGA | -0.232 |
| GATTCGGC | 0.0544 |
| CCCTAGAG | -0.382 |
| GCCTATCC | -0.103 |
| TACTCAGA | -0.0518 |
| ATTAGAGC | 0.0731 |
| ACATCGAT | -0.0473 |
| ACTAAGGA | 0.0681 |
| CTGACTGC | -0.214 |
| GTGGAGGA | -0.181 |
| GACACGCC | 0.0711 |
